The text below walks through data of the supplement of paper PMC3334620.

The full ranking holds about 33,000 sequences; the median of “E-score (-0.5 to 0.5)” is about -0.04, and the highest 2% start at about 0.36. Some of the results follow.

This assay concerns the target T1, Hmlalpha2 (UniProt P0CY09).
T1 sequence: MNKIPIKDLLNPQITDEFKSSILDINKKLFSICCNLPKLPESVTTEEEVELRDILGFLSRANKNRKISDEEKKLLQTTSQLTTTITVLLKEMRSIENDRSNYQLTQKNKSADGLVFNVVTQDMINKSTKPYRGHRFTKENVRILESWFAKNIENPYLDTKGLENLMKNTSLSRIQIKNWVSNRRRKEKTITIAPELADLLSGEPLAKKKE
In words: PBM E-score (8-mer binding enrichment) (E-score (-0.5 to 0.5)); higher = stronger / more preferred TF binding; most listed sequences are background and not binding sites. As to conditions: protein concentration: 200 nM; construct: GST-full length. In short, it runs like this:
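Universal all-10-mer Agilent arrays, double-stranded by primer extension on fresh or once-stripped slides, were probed with about 100-200 nM GST-tagged yeast transcription factors made by PURExpress. Fluorescent anti-GST detected bound protein, and masliner normalised the scans. E-scores from the Universal PBM Analysis Suite were given to each ungapped eight-base word pooled with its reverse complement.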
CTCCGCGC: the “PBM E-score” value was -0.2.
The figure for CTGCATGC is 0.135; for AGGGTCTC it is -0.106; for CCGACTAA it is -0.149.
Take TCTCGTCA: the “PBM E-score” value is -0.0582.
The figure for ATCTATGC is 0.0381; for GATCTCAC it is -0.0588.
Under GACACTAA stands -0.0834; under AAGATCAA, 0.0571.
CAACGGCC: the “PBM E-score” value is -0.165.
Under ACTCACTG stands 0.0859; under AAGTGTAA, 0.156; under AACAACAA, 0.306.
As for AAACGCGC, the “PBM E-score” value was 0.16.
Under CGTGTGCA stands 0.0955; under CAAGTGGG, -0.06; under CACCCGTC, -0.165.
The figure for ACAGGTAG is 0.00661.
The figure for AGCAAGGA is -0.171.
Consider AGCCATTG, for which the “PBM E-score” value is 0.0239.
Under AAAGTCAT stands 0.0672; under GAGCGGAA, -0.0844; under AATGTGAC, -0.14.
Under AGATCCAC stands -0.137.
Regarding AGGACTAA, the “PBM E-score” value was -0.165.
For CACGAGGG, the “PBM E-score” value is -0.0513.
Under AGAATAGC stands -0.15; under TGGAGCAA, -0.0513.
With AGTCGTAC, the “PBM E-score” value is -0.161.
Turning to ATCCTCGG, the “PBM E-score” value was -0.306.
The figure for GCGTTGAC is 0.196.
Regarding ACGAGGGG, the “PBM E-score” value is -0.0932.
Under CCCAATAA stands -0.0986; under ATCAGACG, -0.0575; under ACTGCGGG, -0.135.
The figure for GCAGGTTA is -0.218; for AAATGACT it is 0.0928.
The figure for TACTGCTA is -0.135; for AAACACAT it is 0.314; for ATCTGCTC it is -0.0241.
As for AGGGCCCT, the “PBM E-score” value was -0.249.
Under CCTCAAAC stands -0.0319; under CCACCCCG, -0.115; under ATTCTAAG, 0.0189.
In the case of AATGTCTC, the “PBM E-score” value was -0.00015.
AACAATGA: the “PBM E-score” value turned out to be 0.232.
Under CCCTCCCC stands -0.29; under ACTCTTCT, 0.0161; under GAAGAGGA, -0.279.
For CTAGCTCC, the “PBM E-score” value was -0.0376.
Under AGGTCCGA stands -0.138; under CCCGCGCC, -0.242; under AGTAGCCG, -0.148.
Under ACTTCCAG stands -0.217; under AATTAGCG, -0.0517; under AGAACGTA, 0.193.
Under TCATTGCA stands 0.0979; under AGAGTAAT, 0.195; under TCTCAACA, 0.295.
In the case of GAACTCGC, the “PBM E-score” value is -0.00079.
Under AGGGACAG stands -0.336; under CGCCCAAC, -0.136.
The figure for CAATGCGA is 0.0708.
The figure for ACCGCTGG is -0.228.
Turning to CTGCGGTA, the “PBM E-score” value is -0.0205.
ACCATTTA: the “PBM E-score” value amounted to 0.106.
The figure for CCAATGCG is -0.181; for GTTGAAGA it is 0.135.
The figure for TTACCTAA is 0.223; for GAATATTA it is 0.127.
Consider GGGCGTAC, for which the “PBM E-score” value was -0.0757.
For AAACCGCC, the “PBM E-score” value was -0.0107.
Under GCTCATCC stands -0.167; under CCCAGCTA, -0.156.
Under CGCACGTA stands 0.224; under ACGCCCCC, -0.141; under GACCAAGA, -0.256.
Under CAGACGTA stands 0.14.
Take CAGGGATA: the “PBM E-score” value is -0.00861.
Under TTCACAAA stands 0.136.
Under GAGATTGA stands -0.0419.
Under ACCTGGAA stands 0.21.
As for ATGCCGCA, the “PBM E-score” value is -0.0752.
The figure for CATTCCCA is -0.0328; for AGACGACA it is -0.0381.
Under ACCATAAG stands -0.141.
The figure for ATATCTGA is 0.103.
On to AGTGCGGG, for which the “PBM E-score” value was -0.18.
The figure for CATGCTCC is 0.0297.
As for CTTTTGAC, the “PBM E-score” value is 0.204.
The figure for AGAACAGA is -0.0893; for AGTACTAG it is 0.065; for TGGAAAAA it is -0.0202.
Regarding CGACCAAG, the “PBM E-score” value is -0.16.
Under TATCCGCA stands 0.194.
The figure for GAGAATCA is -0.217.
Under CATGGGGA stands -0.0327; under ATTCCAGA, -0.0334.
Turning to GATGTCAA, the “PBM E-score” value was 0.194.
Under CGTTTGTA stands 0.275; under GCCGTTTA, -0.0377.
As to CCTACGGA, the “PBM E-score” value is -0.288.
Under GAAGTGGC stands -0.132.
The figure for CCGACATC is -0.04; for AGGCGCTG it is -0.0892; for ATGTTCAC it is 0.298.
The figure for CTCTTCAG is -0.265; for ACAAGGAC it is 0.105; for CGTTATTA it is 0.222.
For the sequence CTCGTCTC, the “PBM E-score” value was -0.115.
